Laboratory results published in PubChem BioAssay AID485294 (National Center for Advancing Translational Sciences (NCATS), 2010).
Screen size: about 370,000 compounds; about 150 (0.041%) were called active. The inconclusive results got no clear call from the source; some entries with a clear call stand among them for comparison. Calls come from the whole dose curve; as a rule, active = well fitted inhibition curve with a large enough effect; inconclusive = small, poorly fitted or top-dose-only effect; inactive = flat fitted curve, though single readings scatter. Potencies of inconclusive entries are left out as doubtful fits.

Biological target: Beta-lactamase (Escherichia coli (strain K12)) (UniProt P00811)
Chain of UniProt P00811 (P00811 whole entry, looked up): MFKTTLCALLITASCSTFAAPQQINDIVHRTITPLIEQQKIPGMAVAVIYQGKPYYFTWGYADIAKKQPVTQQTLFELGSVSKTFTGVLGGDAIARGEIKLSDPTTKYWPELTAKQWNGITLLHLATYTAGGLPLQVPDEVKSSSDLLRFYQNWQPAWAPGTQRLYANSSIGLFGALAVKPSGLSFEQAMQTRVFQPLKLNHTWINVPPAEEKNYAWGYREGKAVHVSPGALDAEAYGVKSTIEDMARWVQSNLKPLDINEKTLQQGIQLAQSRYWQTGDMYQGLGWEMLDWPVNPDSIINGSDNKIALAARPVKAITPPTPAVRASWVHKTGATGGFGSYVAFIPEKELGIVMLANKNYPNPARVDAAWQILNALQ
Assay: qHTS Inhibitors of AmpC Beta-Lactamase (assay with detergent); note: nearly all actives have a fitted effect of over 25% in size;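 for activity change, negative = inhibition: 0% = no-compound wells and -100% = no-enzyme wells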
Conditions: AmpC hydrolysis of nitrocefin, absorbance 480 nm, 0.01% Triton; activity change, negative = inhibition: at 114 µM (top of the series)
Procedure, shortened: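 AmpC (5.3 nM in the dispensed reagent) in 20 mM phosphate pH 7.0 with 0.01% (detergent screen) or 0.0001% Triton X-100 was preincubated with compounds for 15 min at room temperature. Nitrocefin was then added from an 800 uM solution, and hydrolysis was followed at 480 nm.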
Potency is the fitted concentration of half-maximal effect; tags give direction and shape of the fitted curve.

| SMILES | Potency | activity change, negative = inhibition |
| --- | --- | --- |
| COc1cc(Cl)cc(CN2CCC(CCC(=O)NC3CC3)CC2)c1OC | inconclusive [inhibitor, full curve, poor fit] | – |
| CCc1c(C)sc(NC(=O)Cn2nc(C(F)(F)F)c3c2CCCC3)c1C#N | inconclusive [inhibitor, partial curve] | – |
| O=C(NCc1ccc(Cl)cc1)c1cccnc1 | inconclusive [inhibitor, full curve] | – |
| COC(=O)c1sccc1NC(=S)Nc1cc(C)cc(C)c1 | inconclusive [inhibitor, full curve] | – |
| COc1cccc(NC(=O)c2ccccc2-c2nc(-c3ccc(Cl)cc3)no2)c1 | – | inactive: -14.4% |
| CS/C(=C\[N+](=O)[O-])Nc1ccc(Cl)cc1 | – | inactive: -1.11% |
| COc1cc(C)c(CN2CC=C(c3ccc(F)cc3)CC2)cc1C | inconclusive [inhibitor, full curve, poor fit] | – |
| CC(C)(O)C(=O)N=Nc1c(O)[nH]c2ccccc12 | – | inactive: -2.06% |
| COc1cccc(N/C=C/C(=O)c2ccc(Cl)cc2)c1 | – | inactive: -1.2% |
| COc1ccc(-c2nc(CS(=O)CC(=O)NCCN3CCCCCC3)c(C)o2)cc1OC (configuration not stated) | – | inactive: -3.98% |
| Cc1noc(C)c1S(=O)(=O)NCC(=O)O | – | inactive: -6.28% |
| COCCn1c(C)nc2oc3ccc(Br)cc3c(=O)c2c1=O | inconclusive [inhibitor, full curve, poor fit] | – |
| O=C(Cn1c(-c2cccs2)cc2cc(Cl)ccc21)N1CCCCC1 | – | inactive: -1.42% |
| CCN(CCCNC(=O)COc1cc(=O)n(CC)c2ccccc12)c1ccccc1 | inconclusive [inhibitor, partial curve] | – |
| COc1ccc(CC(=O)NNS(=O)(=O)c2ccc3ccccc3c2)cc1OC | inconclusive [inhibitor, partial curve, poor fit] | – |
| Cc1ccc2c([N+](=O)[O-])cccc2n1 | – | inactive: 4.2% |
| COc1cc(CNCc2ccccn2)ccc1OCC(=O)NC(C)(C)C | inconclusive [inhibitor, partial curve, poor fit] | – |
| CCC(Oc1ccccc1)C(=O)N1CC(C)CC(C)C1 (configuration not stated) | inconclusive [inhibitor, full curve, poor fit] | – |
| Nc1cccc(Oc2ccc3c(c2)C(=O)N(CC2CCCO2)C3=O)c1 (configuration not stated) | – | inactive: -5.72% |
| Cc1nnc(N2C(=O)c3ccc(Br)cc3C2=O)s1 | – | inactive: -6.84% |
| O=C(NCc1cccc(Cl)c1)c1cccc(S(=O)(=O)N2CCCCC2)c1 | inconclusive [inhibitor, single point] | – |
| COc1ccc(C)cc1NC(=O)C(Sc1nnc(Nc2cc(C)ccc2OC)s1)c1ccccc1 (configuration not stated) | – | inactive: -9.06% |
